Test results: PubChem BioAssay AID720542 (National Center for Advancing Translational Sciences (NCATS), 2013)
The campaign covered roughly 360,000 compounds. About 740 (0.21%) were called active. Inconclusive means that the source gave no clear call. Such entries were picked first, then a sample of the others. The call rests on the fitted dose curve; in most records, active means well fitted inhibition curve with a large enough effect; inconclusive means small, poorly fitted or top-dose-only effect; inactive means no such curve, though single readings can be large or run the other way. No potency is given beside an inconclusive call; the fits are too rough.

Test system: Plasmodium falciparum AMA1 (3D7) - RON2 peptide interaction
Assay: qHTS for Inhibitors of AMA1-RON; Towards Development of Antimalarial Drug Lead: Primary Screen; further: nearly all actives have a fitted effect of over 45% in size;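 on activity change, negative = inhibition: 0% = vehicle wells and -100% = peptide control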
Settings: AlphaScreen AMA1-biotinylated RON2 peptide binding; activity change, negative = inhibition: at 58.2 µM (top of the series) unless noted
Procedure, shortened: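 AMA1 (3D7) with his tag at 25 nM final met compounds first, then biotinylated RON2 peptide at 25 nM; detection used donor plus acceptor beads, 10 µg/mL apiece, read by AlphaScreen after 30 min at room temperature.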
Potency means the concentration at half of the fitted maximal effect; tags describe the fitted curve by direction and shape.

SMILES | Potency | activity change, negative = inhibition
Cc1cccc(-c2noc(-c3c(C)noc3C)n2)c1 | inconclusive [inhibitor, partial curve] | 
CCOC(=O)c1cnc(-n2nc(C)cc2C)nc1Nc1ccc(N(C)C)cc1 | inconclusive [inhibitor, full curve] | 
Cc1cc(C(=O)Nc2nnc(-c3ccccc3)s2)no1 |  | inactive: 5.22%
CC(=O)NCC(=O)Nc1ccc(Br)cc1C(=O)c1ccccc1 | inconclusive [inhibitor, partial curve, poor fit] | 
Cc1ccc(C)n1-c1ccc(N(C)C)cc1 | active: 28.2 µM | 
COc1ccc(Nc2ccc(S(=O)(=O)N3CCCCC3)cc2[N+](=O)[O-])cc1OC | inconclusive [inhibitor, partial curve] | 
Cc1ccc(-n2cnc3c(=O)[nH]cnc32)cc1 |  | inactive: -8.13%
COc1ccc(OC)c(-c2csc(NC(=O)Cc3ccc(OC)c(OC)c3)n2)c1 | inconclusive [inhibitor, partial curve, poor fit] | 
COc1cc(/C=C2\CC(C(C)(C)C)C/C(=C\c3cc(OC)c(OC)c(OC)c3)C2=O)cc(OC)c1OC (stereo unspecified) | inconclusive [inhibitor, single point] | 
COc1cccc(N2CCN(c3ncnc4c3[nH]c3ccc(F)cc34)CC2C)c1 (stereo unspecified) |  | inactive: -22.2%
COc1ccc(C2NCc3ccccc3-n3cccc32)cc1 (stereo unspecified) | inconclusive [inhibitor, partial curve] | 
COc1ccc(/C=C/C=C2\N=C(SC)SC2=O)cc1 | inconclusive [inhibitor, full curve, poor fit] | 
O=C(Nc1cccc(Cl)c1)c1ccncc1 |  | inactive: 11.1%
Cc1[nH]c2ccccc2c1/C=N/Nc1ccccc1[N+](=O)[O-] | active: 31.6 µM | 
O=C(O)C1C2C=CC(C2)C1C(=O)NCCc1ccccc1 (stereo unspecified) |  | inactive: -4.18%
COc1ccccc1CN1C[C@@H]2C[C@@H](c3[nH]c4ccc(C)cc4c3C)N3CCC[C@@]23C1=O |  | inactive: 8.71%
COc1ccc(-n2c(-c3ccccc3)cc3c2CCCC3=O)cc1 | inconclusive [inhibitor, partial curve] | 
Cc1cc2oc(=O)cc(-c3ccccc3)c2c(C)c1-c1ccc(N(C)C)cc1 | inconclusive [inhibitor, single point] | 
N#CC(C(=O)c1ccco1)c1ccccn1 (stereo unspecified) |  | inactive: 3.8%
CCn1c(C)nc2cc(NC(=O)Nc3cccc(C(C)=O)c3)ccc21 |  | inactive: 2.54%
Cc1ccc2[nH]c(=O)c(C(c3nnnn3CC3CCCO3)N3CCOCC3)cc2c1 (stereo unspecified) |  | inactive: 17.1%
C/C(=N\NC(=S)NC(C)C)c1ccco1 |  | inactive: 11.3%
COc1ccc(NC(=O)C2Cc3c(-c4ccccc4)ccnc3O2)cc1OC (stereo unspecified) | inconclusive [inhibitor, partial curve] | 
C=CC(=O)Nc1cccc(Oc2ncnc3[nH]cc(-c4cnc5ccccc5c4)c23)c1 |  | inactive: 10.3%
CCC/C(O)=C1\C(=O)CCCC1=NCCc1ccc(OCC)c(OCC)c1 |  | inactive: 5.14%
C/C=C\C(=O)Nc1cccc(C2=NOC3(C2)C[C@@H](C(N)=O)N(C(=O)c2ccc(OC)cc2)C3)c1 (stereo partly specified) |  | inactive: 4.84%

SMILES | Potency | activity change, negative = inhibition
COc1ccc(-c2cc(N)n(S(=O)(=O)c3ccc(F)cc3)n2)cc1OC |  | inactive: -2.35%
O=c1[nH]c2ccccc2nc1/C=C(\O)C(F)F |  | inactive: 6.5%
O=c1[nH]c(CSc2ncc(-c3ccc(F)cc3)n2Cc2ccco2)nc2ccccc12 | inconclusive [inhibitor, partial curve] | 
CCN1CCN(CCCOc2ccccc2-c2ccccc2)CC1 | inconclusive [inhibitor, single point] | 
O/C=c1\ccc2cccc3nc(C(F)(F)F)nc1c23 | inconclusive [inhibitor, partial curve] | 
COc1ccc(N=Nc2nc(-c3ccccc3)c(-c3ccccc3)[nH]2)cc1 | inconclusive [inhibitor, single point] | 
CCc1ccccc1OCC(=O)Nc1cc(S(=O)(=O)N2CCOCC2)ccc1N1CCCCC1 |  | inactive: -10.3%
C[C@H](NS(=O)(=O)c1ccccc1)C(=O)N1CCN(C(c2ccccc2)c2ccccc2)CC1 |  | inactive: 14.9%
O=C(N/N=C/c1ccco1)c1cccc(N2CCCC2=O)c1 |  | inactive: 4.45%
CC(C)(C)CN1C(=O)C(=O)NC[C@@H]1CC1CCCCC1 |  | inactive: -0.292%
COc1cccc2sc3cc(C#Cc4ccccn4)ccc3c(=O)c12 | inconclusive [inhibitor, single point] | 
O=C(CSc1nc2ccccc2s1)Nc1ccc2c(c1)oc1ccccc12 |  | inactive: -3.65%
CCCc1cc(C(=O)OCC(=O)N2CCN(c3ccc(OC)cc3)CC2)sc1C | inconclusive [inhibitor, partial curve] | 
CO/N=C/c1ccc(Sc2ccc(C)cc2)c([N+](=O)[O-])c1 |  | inactive: 0%
Cc1oc(-c2cc3c(cc2Cl)OCO3)nc1CN1CCCC1c1ccc(F)cc1 (stereo unspecified) | inconclusive [inhibitor, partial curve] | 
O=C(CN1CCCc2ccccc21)Nc1ccccc1[N+](=O)[O-] | inconclusive [inhibitor, partial curve] | 
CC(C)c1ccccc1OCC(O)CN(CC(O)COc1cccc2ccccc12)C(C)C (stereo unspecified) | inconclusive [inhibitor, partial curve] | 
O=C(CSc1nnc(-c2ccco2)c(-c2ccco2)n1)Nc1ccccc1 | inconclusive [inhibitor, single point] | 
O=c1c2ccccc2nnn1CSc1ccc2c(c1)OCCO2 |  | inactive: -2%
COc1cccc(CN2CCCC(C(=O)N3CCCCC3)C2)c1OC (stereo unspecified) | inconclusive [inhibitor, partial curve] | 
O=C(NCCc1ccccc1)c1ccc2c(c1)OCCO2 |  | inactive: 0.693%
O=C(Nc1cnccn1)c1cccs1 |  | inactive: 33.8%
COc1ccc(CN(C)CCc2ccccn2)c(OC)c1OC | inconclusive [inhibitor, partial curve] | 
COc1ccccc1CNC(=O)COc1ccccc1C(=O)c1cnn(-c2ccccc2)c1 |  | inactive: 3.81%
C#CCOCCOCCOCCNc1nc(N2CCN(C(=O)CCCCCCCCCCNC(=O)[C@@H](CCSC)n3cc(CCO)nn3)CC2)nc(N2CCN(C(=O)CCCCCCCCCCNC(=O)[C@H](CCSC)n3cc(CCO)nn3)CC2)n1 |  | inactive: 7.71%
Cn1cc(CN2CCC(n3nccc3NC(=O)Cc3ccccc3)CC2)cn1 |  | inactive: 2.01%

SMILES | Potency | activity change, negative = inhibition
O=C(COC(=O)/C=C/c1ccccc1[N+](=O)[O-])NCc1ccco1 | inconclusive [inhibitor, full curve, poor fit] | 
COc1ccc(C)cc1NC1=C(Cl)C(=O)N(C2CCCCC2)C1=O |  | inactive: -22.2%
COc1ccc(C(=O)NC(=S)N2CCN(c3ccccc3OC)CC2)cc1 |  | inactive: 81.9%
COc1ccc(C(NCC(=O)Nc2c(C)cccc2C)c2ccccc2)cc1 (stereo unspecified) | inconclusive [inhibitor, single point] | 
O=C(/C=C/c1cccs1)c1cc(Cl)ccc1O | inconclusive [inhibitor, single point] | 
COCCNC(=S)N1CCN(C)CC1 | inconclusive [inhibitor, partial curve] | 
CCC(=O)N1CCc2cc(S(=O)(=O)N3CCCCC3CC)ccc21 (stereo unspecified) |  | inactive: 17.5%
COCCCNC(=O)CSc1ccc(Cl)cc1 | inconclusive [inhibitor, full curve, poor fit] | 
CCC1CC(CSC(=N)N)OC1=O (stereo unspecified) | inconclusive [inhibitor, partial curve] | 
Cc1ccc(C(C(=O)NC2CCCC2)N(Cc2ccc3c(c2)OCO3)C(=O)Cc2cccs2)cc1 (stereo unspecified) |  | inactive: -7.19%
C#CCOCCOCCOCCNc1nc(N2CCN(C(=O)[C@H](CCCCN)n3cc(CN)nn3)CC2)nc(N2CCN(C(=O)[C@H](CCC(=O)O)n3cc([C@@H](N)CCSC)nn3)CC2)n1 |  | inactive: 6.79%
Cc1cc(OCC(=O)N2CCCCCC2)ccc1[N+](=O)[O-] |  | inactive: -2.51%
Cc1cc(C(=O)CSc2nncs2)c(C)n1Cc1ccco1 | active: 22.4 µM | 
CCN1/C(=C/C(C)=C/c2sc3ccccc3[n+]2CC)Sc2ccccc21 | active: 28.2 µM | 
NC1CCN(c2nc3c(cc2F)c(=O)c(C(=O)O)cn3-c2ccc(F)cc2F)C1 (stereo unspecified) |  | inactive: 9.37%
Cc1ccc(CNc2ccc3c(c2)OCO3)cc1 | inconclusive [inhibitor, single point] | 
CCN(CC)S(=O)(=O)c1ccc(N2CCN(c3cccc(OC)c3)CC2)c([N+](=O)[O-])c1 | inconclusive [inhibitor, partial curve] | 
N/C(=N\OC(=O)Oc1ccccc1)c1ccc([N+](=O)[O-])cc1 | inconclusive [inhibitor, partial curve] | 
O=C(NCCSc1c(-c2ccccc2)[nH]c2ccccc12)c1cc2ccccc2oc1=O | inconclusive [inhibitor, full curve, poor fit] | 
Cc1ccc2nc(/C(C#N)=C/c3ccc(-c4cccc([N+](=O)[O-])c4)o3)[nH]c2c1 | inconclusive [inhibitor, full curve, poor fit] | 
COc1ccccc1CN1CC(C(=O)N(C)Cc2nc(C)cs2)CCC1=O (stereo unspecified) |  | inactive: 7.7%
O=[N+]([O-])c1ccc(N2CCCC2)cc1N1CCCC1 | inconclusive [inhibitor, single point] | 
COc1ccc2[nH]c3c(c2c1)CCN1C(=O)C(CC(=O)NCCC2=CCCCC2)C[C@H](C(=O)N(C(C)C)C(C)C)[C@@]31C (stereo partly specified) | inconclusive [inhibitor, single point] | 
COc1ccc(N(C(=O)c2ccncc2)S(=O)(=O)c2cccs2)cc1 |  | inactive: 0.229%
